# Records with an inconclusive call do not appear. Calls come from the whole dose curve; as a rule, active = well fitted cell-killing curve with a large enough effect in the repeat runs; inconclusive = weak or mixed curves, or effect the other way; inactive = no such curve, though single readings can be large or run the other way. More than one record can exist for a structure, and the calls need not agree. A number of entries come with more than one value. This list holds those alone. The source may hold further records. Values that stand side by side are repeats (runs, samples, wells, individuals or studies). A tag in brackets gives the origin of a value. A, B and so on number the origins entry by entry.
# Assay: qHTS assay to identify small molecule antagonists of the progesterone receptor (PR) signaling pathway - cell viability counter screen (AID 1346798); note: nearly all actives have a fitted effect of over 50% in size
# Summary of the method: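 Cytotoxicity read as CellTiter-Glo luminescence (30 min, room temperature) in the same wells as the beta-lactamase readout. HEK293T PR-UAS-bla cells in charcoal-stripped 2% FBS received compound and R5020, then 16 h at 37C, 5% CO2.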
# Potency is the fitted concentration of half-maximal effect.
smiles,measurement,value
C[C@]12CCC(=O)C=C1CC[C@@H]1[C@@H]2CC[C@]2(C)C(=O)CC[C@@H]12,Potency,inactive [sample A] and active: 30.6 µM [sample B]

# Reference: PubChem BioAssay (Tox21)
